In the supplement of paper PMC10338343:
± gives the standard deviation. This is a selection; strong and weak results do not stand in their true shares.

System: MIWI (PIWIL1) piRISC loaded with L1MC piRNA (30 nt)
Assay: pre-steady-state target cleavage rate (min^-1); MIWI and MILI are mouse PIWI proteins and EfPiwi is from a freshwater sponge; tags in brackets are library labels; higher = faster piRNA-guided slicing of the target
Conditions: guide: L1MC piRNA 5'p-UAACUAAAUACUAUGCAAGCUGUAGGUCCU
Method in brief: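 Cleave-'n-Seq: 1 nM active affinity-purified piRISC with one synthetic guide and 0.1 nM transcribed, DNA-blocked target RNA library were mixed, with or without 500 nM GTSF1 partner protein, in HEPES–potassium acetate buffer at 33 °C for 0–8 or 0–960 min. Uncleaved targets were sequenced and normalised to depth and to weakly complementary targets, three trials were pooled, and k3 was capped at 0.0001 min^-1. The pre-steady-state cleavage rate was fitted […].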

[1] = auxiliary factor: 500 nM mouse GTSF1
[2] = auxiliary factor: none (no GTSF1)

Row | Sequence | pre-steady-state target cleavage rate [1] | pre-steady-state target cleavage rate [2]
1 | UCCUCCUACAGCUUCAUAGUAUUUAGUUA | 0.88 ± 0.031 | 0.00715 ± 0.0016
2 | UCCACCUACAGCUUGGAUAGUAUUUAGAAA | 0.297 ± 0.045 | 0.00249 ± 0.002
3 | UCGACCUACAGCAUGCAAAGUAUUUAGUUA | 1.02 ± 0.039 | 0.0116 ± 0.0028
4 | UCCUGGAUGUGCUUGCAUAGUAUAUAGUAA | 0.0164 ± 0.005 | 0.00396 ± 0.0021
5 | UCCUGGUACAGCUUGCAUAGUAUUUAGUCA | 0.358 ± 0.046 | 0.0208 ± 0.0034
6 | AGGUCCUAGAGCUUGCAUAGUAUUUAGUUA | 1.08 ± 0.057 | 0.0655 ± 0.012
7 | AGGACCUACAGCUUGCAUAGUAUCUUAGUUA | 0.944 ± 0.066 | 0.0784 ± 0.02
8 | UGGACCUUGUGCUUGCAUAGUAUUUAGUAA | 0.348 ± 0.042 | 0.0178 ± 0.0047
9 | UCCUGGAUGAGCUUGCAUAGUAUAUACUUA | 0.0169 ± 0.008 | 0.00397 ± 0.0027
10 | AGGACCUACAGCUUGCCUAGUAUUUAGUUA | 1.24 ± 0.054 | 0.0658 ± 0.012
11 | UCCUGGAACAGCUUGCAUAGAAUUAAGUUA | 0.16 ± 0.025 | 0.00614 ± 0.0028
12 | UCCUGGAUCAGCUUGUCAUAGUAUUUAGUUA | 0.157 ± 0.019 | 0.00402 ± 0.0027
13 | UCCUGGAUCAGCUUGCAUAGUUAAUAGUAA | 0.013 ± 0.0059 | 0.00328 ± 0.003
14 | UCCUCCUACAGCUUGCAUAGUAGUUAGUUA | 0.466 ± 0.031 | 0.0176 ± 0.0033
15 | UCCUGGAUCAGCUUGCAAUGUAUUUAGUUA | 0.0725 ± 0.011 | 0.00523 ± 0.0025
16 | AGGACCUAGAGCUUGCAUAGAAUUUAGUUA | 0.246 ± 0.021 | 0.0169 ± 0.0061
17 | AGGUCCUACAGCUUGCAUAGUAUUUAGUUA | 1.43 ± 0.054 | 0.111 ± 0.019
18 | UCCUGGAUGAGCAUGCAUAGAAUUUAGUUA | 0.0501 ± 0.012 | 0.0051 ± 0.0024
19 | UGGACCAACAGCAUGCAUAGUAUUUAGUUA | 1.24 ± 0.046 | 0.0449 ± 0.01
20 | AGUACCUACAGCUUGCAUAGUAUUUAGUUA | 1.23 ± 0.064 | 0.0796 ± 0.013
21 | UCCUGGAACACCUUGCAUAGUAUUAAGUUA | 0.293 ± 0.045 | 0.0072 ± 0.0024
22 | UGGACCUACAGCAUGCAUAGUAUUAAGUUA | 0.892 ± 0.066 | 0.015 ± 0.0027
23 | UCCUGGAUGUCCUUGCAUAGUAUUUAAUUA | 0.051 ± 0.0096 | 0.0052 ± 0.0027
24 | UCCUGGAACAGCUUGCAUAGUAUUGAGUUA | 0.439 ± 0.043 | 0.0332 ± 0.0068
25 | UCCUGGAUCAGCUUGCAUAGUAUUUUGAAA | 0.364 ± 0.054 | 0.00971 ± 0.003
26 | AGGACCUACAGCUUGCUUAGAAUUUAGUUA | 0.377 ± 0.04 | 0.00929 ± 0.0032
27 | UCCUGGAUCAGGUUGCAAAGUAUUUAGUUA | 0.391 ± 0.036 | 0.0061 ± 0.0023
